# Assay results taken from PubChem BioAssay AID504332 (National Center for Advancing Translational Sciences (NCATS), 2011).
# Out of some 350,000 compounds screened, about 31,000 (8.9%) were called active. The inconclusive results got no clear call from the source; some entries with a clear call stand among them for comparison. Calls come from the whole dose curve; as a rule, active = well fitted inhibition curve with a large enough effect; inconclusive = small, poorly fitted or top-dose-only effect; inactive = no such curve, though single readings can be large or run the other way. A potency beside an inconclusive call is a rough fit, not a confirmed value.
# Molecular target: Histone-lysine N-methyltransferase EHMT2 (Homo sapiens) (UniProt Q96KQ7)
# Assay: qHTS Assay for Inhibitors of Histone Lysine Methyltransferase G9a; note: nearly all actives have a fitted effect of over 75% in size
# Conditions: G9a H3K9 monomethylation, AlphaScreen, 2 h; activity, negative = inhibition: at 59 µM (top of the series) unless noted
# Outline: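 Using a bead-based AlphaScreen, monomethylated H3K9 product from 2 h room-temperature reactions (G9a 20 nM, peptide 500 nM, SAM 20 uM) was detected with 0.5 ug/mL rabbit anti-H3K9me1 antibody.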
# % is set by controls: 0 for no effect and ±100 for the full control effect; potency is the fitted concentration of half-maximal effect; tags give direction and shape of the fitted curve.
# UniProt Q96KQ7, sequence (Q96KQ7 whole entry, looked up): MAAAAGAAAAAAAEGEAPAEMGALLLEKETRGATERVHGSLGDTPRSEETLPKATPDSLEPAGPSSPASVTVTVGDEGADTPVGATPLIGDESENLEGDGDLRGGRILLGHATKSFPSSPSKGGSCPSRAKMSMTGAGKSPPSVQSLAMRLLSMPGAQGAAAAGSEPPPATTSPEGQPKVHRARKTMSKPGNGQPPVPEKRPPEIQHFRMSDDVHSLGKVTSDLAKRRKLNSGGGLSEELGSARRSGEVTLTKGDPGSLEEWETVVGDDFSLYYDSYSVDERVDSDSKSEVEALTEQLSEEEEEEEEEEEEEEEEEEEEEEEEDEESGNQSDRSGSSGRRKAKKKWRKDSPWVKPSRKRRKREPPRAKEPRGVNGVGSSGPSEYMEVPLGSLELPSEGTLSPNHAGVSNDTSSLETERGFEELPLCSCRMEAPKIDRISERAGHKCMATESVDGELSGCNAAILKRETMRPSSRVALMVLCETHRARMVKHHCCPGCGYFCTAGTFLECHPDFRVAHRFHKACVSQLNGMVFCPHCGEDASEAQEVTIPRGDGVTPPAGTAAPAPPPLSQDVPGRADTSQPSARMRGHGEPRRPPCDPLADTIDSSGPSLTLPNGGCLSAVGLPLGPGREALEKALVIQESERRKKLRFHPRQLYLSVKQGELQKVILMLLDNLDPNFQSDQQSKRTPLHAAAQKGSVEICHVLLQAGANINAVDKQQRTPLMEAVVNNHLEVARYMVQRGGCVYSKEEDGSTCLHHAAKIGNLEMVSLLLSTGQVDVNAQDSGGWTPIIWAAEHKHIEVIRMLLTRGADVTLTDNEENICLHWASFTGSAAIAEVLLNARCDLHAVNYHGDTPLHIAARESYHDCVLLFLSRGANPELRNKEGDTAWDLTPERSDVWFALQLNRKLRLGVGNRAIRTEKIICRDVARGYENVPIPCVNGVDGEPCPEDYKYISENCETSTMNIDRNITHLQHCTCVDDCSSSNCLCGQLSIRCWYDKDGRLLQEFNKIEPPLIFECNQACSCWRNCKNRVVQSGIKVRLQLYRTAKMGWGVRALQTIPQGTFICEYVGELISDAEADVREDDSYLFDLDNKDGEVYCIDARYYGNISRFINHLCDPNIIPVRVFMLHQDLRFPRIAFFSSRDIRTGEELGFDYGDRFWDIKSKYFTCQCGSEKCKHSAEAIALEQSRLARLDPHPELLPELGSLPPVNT
Compound,Potency,"activity, negative = inhibition"
CC1CCC(NCC(=O)Nc2cccc(S(N)(=O)=O)c2)CC1 (configuration not stated),active: 10 µM,–
FC(F)Oc1ccc(-c2c[n+]3c(n2-c2ccccc2)CCCCC3)cc1,–,inconclusive: -75.8% [inhibitor] [at 12.7 µM]
Cc1ccccc1OCc1nc2ccccc2c(=O)n1/N=C/c1ccco1,"inconclusive: 31.6 µM [inhibitor, single point]",–
CCOC(=O)c1ccccc1NC(=O)CSc1nc2cn(CC)nc2c(=O)n1Cc1ccc(Cl)cc1,"inconclusive: 35.5 µM [inhibitor, partial curve, poor fit]",–
Brc1ccc(-c2noc(CCc3ccccc3)n2)o1,"inconclusive: 89.1 µM [inhibitor, single point]",–
O=C(COC(=O)c1cccc(Br)c1)Nc1cccc2c1C(=O)c1ccccc1C2=O,"inconclusive: 44.7 µM [inhibitor, partial curve, poor fit]",–
COC(=O)c1cc(S(=O)(=O)NC2CCN(Cc3ccccc3)CC2)cn1C,"inconclusive: 4.47 µM [inhibitor, single point]",–
COC(=O)CCC(=O)OC1(C)C(=O)C=C2C=C3CCCN3C=C2C1=O (configuration not stated),–,inactive: 19%
COc1ccc(C(=O)NC(=S)Nc2ccc(CN3CCCCC3)cc2)cc1Cl,active: 12.6 µM,–
Fc1ccc(N2CCN(C3CCC(c4ccccc4)CC3)CC2)cc1 (configuration not stated),"inconclusive: 79.4 µM [inhibitor, single point]",–
Brc1ccc(Nc2nc(-c3cccnc3)cs2)cc1,active: 31.6 µM,–
Cn1c(=O)n(C)c2cc(NS(=O)(=O)c3cccs3)ccc21,"inconclusive: 50.1 µM [inhibitor, partial curve, poor fit]",–
CC(C)N1CCN(c2ccc(OC[C@H]3CO[C@](Cn4cncn4)(c4ccc(Cl)cc4Cl)O3)cc2)CC1,"inconclusive: 35.5 µM [inhibitor, single point]",–
CCc1ccc(N=C2NC(=O)/C(=C/c3cc(Br)c(OCC(=O)O)c(OC)c3)S2)cc1,active: 50.1 µM,–
Cn1c(=O)n(CCO)c(=O)c2c1nc(Br)n2Cc1ccccc1,–,inactive: -3.36%
O=Cc1ccc(-c2ccc(Cl)cc2Cl)[nH]1,"inconclusive: 63.1 µM [inhibitor, partial curve, poor fit]",–
CCOC(=O)N1CCC(N2CCN(S(=O)(=O)CC)CC2)CC1,"inconclusive: 28.2 µM [inhibitor, single point]",–
O=C1/C(=C/C=C/c2ccco2)SC(=S)N1NS(=O)(=O)c1ccccc1,active: 3.16 µM,–
Sc1oc(-c2ccccc2)cc1C=Nc1ccccc1,active: 0.891 µM,–
O=C(NCc1ccco1)c1ccc2c(c1)C(=O)c1ccccc1-2,"inconclusive: 2.51 µM [inhibitor, partial curve]",–
Cc1noc(C)c1CSCC(=O)Nc1nc2ccc(F)cc2s1,"inconclusive: 50.1 µM [inhibitor, partial curve]",–
COC(=O)C1C(=O)NC(SC)=C(C#N)C1c1ccccc1 (configuration not stated),"inconclusive: 79.4 µM [inhibitor, single point]",–
CCc1sc(C(=O)Nc2nccs2)cc1C,–,inactive: -6.9% [at 102 µM]
FC(F)(F)c1cccc(Nc2cc(-c3ccccc3)nc3ncnn23)c1,–,inactive: 20.9% [at 102 µM]

Compound,Potency,"activity, negative = inhibition"
COc1cccc(/C=C/c2[nH]c(=O)[nH]c(=O)c2[N+](=O)[O-])c1O,"inconclusive: 79.4 µM [inhibitor, single point]",–
CC(C)Cn1c(-c2ccco2)nc2c(c(=O)c3ccccc3n2C)c1=O,"inconclusive: 1.78 µM [inhibitor, full curve, poor fit]",–
CCOC(=O)N1CCN(c2c(N3CCc4ccccc4C3)c(=O)c2=O)CC1,"inconclusive: 31.6 µM [inhibitor, full curve]",–
COc1ccccc1N1CC(C(=O)Nc2nnc(SCC(=O)N3CCOCC3)s2)CC1=O (configuration not stated),"inconclusive: 35.5 µM [inhibitor, partial curve]",–
COCC(=O)Nc1cc(C)cn(Cc2c(F)cccc2Cl)c1=O,–,inactive: 7.39% [at 102 µM]
COc1ccc(CNC(=O)Cc2c(C)c3cc4c(C)coc4c(C)c3oc2=O)cc1,–,inactive: 0.169%
O=C(Nc1cccnc1)c1ccc(-c2ccccc2)cc1,–,inactive: -0.3% [at 102 µM]
O=C(CCNC(=O)N1CCn2c1nc1ccccc12)NCc1ccc(F)cc1,–,inactive: 5.81% [at 102 µM]
Cc1ccc(NCC(=O)N2CCN(S(=O)(=O)c3ccccc3)CC2)cc1F,"inconclusive: 70.8 µM [inhibitor, partial curve, poor fit]",–
Cc1onc(-c2ccccc2Cl)c1C(=O)Nc1cccc2cccnc12,"inconclusive: 22.4 µM [inhibitor, single point]",–
CCNc1nc(NC#N)nc(SCC(=O)OCC)n1,–,inactive: 26.8%
CC(C)Oc1ccc(CCc2n[nH]c(=S)n2-c2ccccc2)cc1,active: 2.51 µM,–
O=C1C2CCCN2C(=O)N1CCCCN1CCN(c2cccc(C(F)(F)F)c2)CC1 (configuration not stated),–,inactive: 2.49% [at 0.501 µM]
COc1cc(C(=O)Nc2ccc(Nc3ccccc3)cc2)cc(OC)c1OC,active: 50.1 µM,–
CC(=O)c1ccc(S(=O)(=O)N2CCn3cccc3C2c2ccc(C)cc2)cc1 (configuration not stated),–,inactive: -40.9%
COc1cc(OC)cc(-c2cc3nc(C)c(CCC(=O)Nc4nc(C)cs4)c(C)n3n2)c1,"inconclusive: 0.282 µM [inhibitor, partial curve, poor fit]",–
CC(=O)N1CCc2c(sc(NC(=O)CS(=O)(=O)c3ccc(F)cc3)c2C#N)C1,"inconclusive: 89.1 µM [inhibitor, partial curve, poor fit]",–
N/C(=N/O)c1ccccc1N1CCC(Cc2ccccc2)CC1,"inconclusive: 50.1 µM [inhibitor, partial curve, poor fit]",–
CC1(C)Cc2c(c(N3CCCC3)nc3sc(C(=O)Nc4ccccc4)c(N)c23)CO1,"inconclusive: 79.4 µM [inhibitor, single point]",–
O=C(COC(=O)c1ccccc1O)Nc1cc(S(=O)(=O)N2CCCCCC2)ccc1Cl,–,inactive: -1.88% [at 12.7 µM]
COc1ccc(/C=N/NC(=O)c2c(-c3ccccc3)noc2C)cc1,"inconclusive: 79.4 µM [inhibitor, single point]",–
O=C(NNc1ccc([N+](=O)[O-])cc1)c1ccccc1F,active: 35.5 µM,–
O=C(Nc1ccc(O)c2c(=O)cc(-c3ccccc3Cl)oc12)c1ccc(Br)cc1,–,inactive: 6.96%
Cc1cccc(N/C=C(\[N+](=O)[O-])S(=O)(=O)c2ccccc2)c1,"inconclusive: 89.1 µM [inhibitor, partial curve, poor fit]",–

Compound,Potency,"activity, negative = inhibition"
CSc1nsc(SC)c1NC(=O)OCC1CCCO1 (configuration not stated),"inconclusive: 0.631 µM [inhibitor, partial curve, poor fit]",–
COc1ccc(-c2cn3cc(C)ccc3n2)cc1OC,–,inactive: 8.32% [at 12.7 µM]
CCC(C)(C)n1nnnc1C(c1ccc(O)cc1)N1CCc2ccccc2C1 (configuration not stated),active: 2.51 µM,–
CCOC(=O)c1c(NC(=O)c2ccncc2)sc(C)c1C,active: 15.8 µM,–
CCCc1cc(-c2n[nH]c(=S)n2-c2cccc(C)c2)cs1,active: 3.55 µM,–
COc1ccc(N2CCN(C(=O)c3ccc(C)cc3)CC2)c([N+](=O)[O-])c1,"inconclusive: 39.8 µM [inhibitor, single point]",–
C=CCOc1c(Cl)cc(CNc2ccc(C)c(Cl)c2)cc1OC,–,inactive: 57.7%
COc1ccc(C=O)cc1COc1ccc(C)cc1[N+](=O)[O-],"inconclusive: 3.98 µM [inhibitor, single point]",–
Cc1ccc2[nH]c3c(c2c1)CN(C(=O)CN1CCN(Cc2ccc4c(c2)OCO4)CC1)CC3,"inconclusive: 28.2 µM [inhibitor, single point]",–
Cc1ccc(C)c(CN2C(=O)c3ccccc3S(=O)(=O)c3ccc(C(=O)N(C)C4CCCCC4)cc32)c1,"inconclusive: 28.2 µM [inhibitor, partial curve, poor fit]",–
O=C(Nc1ccc2oc(-c3ccccc3)nc2c1)c1cccs1,"inconclusive: 28.2 µM [inhibitor, single point]",–
COC(=O)CSc1nnc(-c2ccc(S(=O)(=O)N3CCCC3)cc2)o1,–,inactive: 9.98% [at 102 µM]
CC(=O)c1cccc(-n2c(=O)c3c4c(sc3n(CC(=O)c3ccccc3)c2=O)CN(C(C)=O)CC4)c1,–,inactive: 0.931%
O=C(O)C(Cc1cn[nH]n1)=NO,active: 6.31 µM,–
COc1ccc(N2CCN(C(=O)CCCn3nnnc3CN3CCOCC3)C(C)C2)cc1 (configuration not stated),"inconclusive: 15.8 µM [inhibitor, full curve]",–
NC(=O)C1CCN(C(=O)c2ccc(NS(=O)(=O)c3ccc(Br)s3)cc2)CC1,"inconclusive: 89.1 µM [inhibitor, single point]",–
COc1ccc(C)cc1NC(=O)CSc1ccc(-c2ccco2)nn1,active: 39.8 µM,–
O=C(NCC1CCCO1)C1CCN(S(=O)(=O)Cc2ccccc2)CC1 (configuration not stated),–,inactive: 5.22% [at 12.7 µM]
Oc1c(CN2CCCCC2)cc(Br)c2cccnc12,–,inconclusive: -133% [inhibitor]
Cc1cccc(N2CCN(C(=O)c3ccc(CS(=O)Cc4cccc(Cl)c4)o3)CC2)c1C (configuration not stated),"inconclusive: 79.4 µM [inhibitor, single point]",–
CC(c1ccccc1)n1cc(C(=O)NCc2ccccn2)nn1 (configuration not stated),"inconclusive: 79.4 µM [inhibitor, single point]",–
COc1ccc(CN(C(=O)c2ccco2)C2CCS(=O)(=O)C2)cc1 (configuration not stated),–,inactive: 15.8% [at 102 µM]
Cc1nn(-c2ccccc2)c(OC(=O)C(C)C)c1Sc1ccc(Cl)cc1,active: 4.47 µM,–
O=C(OCc1ccccc1)N1CCOCCOCCN(C(=O)OCc2ccccc2)CCOCCOCC1,–,inactive: 113%
